Source: the supplement of paper PMC9446081
The whole screen tested about 39,000 compounds, of which about 220 (0.56%) showed activity. Some of the results follow.

Tested on: Escherichia coli K-12 BW25113
Experiment: relative growth (OD600 normalised to plate interquartile mean) (fraction); higher = less growth inhibition, active = 0.2 or less
Settings: 50 µM; LB; incubation time: overnight (16-24 h)
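Further: static incubation at 37 °C against the wild-type strain, values averaged over two biological replicates.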

| SMILES | relative growth |
| --- | --- |
| COC1C(O)C(C)OC(OC2CCC3(C)C4CCC5(C)C(C6=CC(=O)OC6)CCC5(O)C4CCC3(O)C2)C1O (configuration not stated) | inactive: 0.943 |
| CNC(=O)Oc1ccc2c(c1)[C@]1(C)CCN(C)[C@@H]1N2C.CNC(=O)Oc1ccc2c(c1)[C@]1(C)CCN(C)[C@@H]1N2C.O=S(=O)(O)O | inactive: 1.04 |
| CCCN1CC(CSC)CC2c3cccc4[nH]cc(c34)CC21.CS(=O)(=O)O (configuration not stated) | inactive: 1.15 |
| COc1ccc2c(c1)C[C@H](N)C2 | inactive: 0.985 |
| c1cc(N2CCNCC2)ccn1 | inactive: 1.02 |
| O=c1[n-]c(=O)n(Cl)c(=O)n1Cl.[Na+] | inactive: 1.11 |
| CCOP(=S)(OCC)Oc1nc(Cl)c(Cl)cc1Cl | inactive: 1.06 |
| C[C@H]1C[C@@H](O)[C@]2(O)[C@@]13CC(=O)OC[C@@]2(C)[C@](C)(O)C(=O)C3 | inactive: 1.04 |
| N[C@]1(C(=O)O)CC[C@@H](C(=O)O)C1 | inactive: 0.988 |
| Cn1cc(N2C[C@@H]3CN(CCO)C[C@@H]3C2=O)cn1 | inactive: 0.991 |
| COCCCNC(=O)[C@@]1(Cc2ccccc2N=[N+]=[N-])N=C(c2ccc(OCCCO)cc2)O[C@H]1c1ccccc1N=[N+]=[N-] | inactive: 1.02 |
| CCOCC(=O)N1CC[C@H]2CNC[C@H]21 | inactive: 0.983 |
| COP(=S)(OC)Oc1ccc(Sc2ccc(OP(=S)(OC)OC)cc2)cc1 | inactive: 0.986 |
| Cl.c1ccc2c(c1)OCC(C1=NCCN1)O2 (configuration not stated) | inactive: 0.936 |
| N[C@H]1C[C@@H]1c1ccccc1 | inactive: 1.04 |
| CCN(CC)CCOC(=O)C(O)(c1ccccc1)c1ccccc1.Cl | inactive: 1.01 |
| CO[C@H]1C[C@H](O[C@H]2CC[C@]3(C=O)[C@H]4CC[C@]5(C)[C@@H](C6=CC(=O)OC6)CC[C@]5(O)[C@@H]4CC[C@]3(O)C2)O[C@H](C)[C@H]1O | inactive: 0.98 |
| CCCCC[C@H]1C(=O)O[C@H](C)[C@H](NC(=O)c2cccc(NC=O)c2O)C(=O)O[C@@H](C)[C@@H]1OC(=O)CC(C)C | inactive: 0.958 |
| NCc1[nH]nc2cc(F)ccc12 | inactive: 0.99 |
| O=C(O)C=CC(=O)O.c1ccc2nc(N3CCNCC3)ccc2c1 | inactive: 0.991 |
| [NH2][Pt]1([NH2])[O]C(=O)C2(CCC2)C(=O)[O]1 | inactive: 0.958 |
| C[C@@H]1CN([C@H](C)CO)C(=O)c2c(c3ccccc3n2C)-c2ccccc2CO[C@@H]1CN(C)C(=O)Oc1ccccc1 | inactive: 1.02 |
| C=C(C)C1Cc2c(ccc3c2OC2COc4cc(OC)c(OC)cc4C2C3=O)O1 (configuration not stated) | inactive: 1.02 |
| CCCCCCCCCCCCCCCC[n+]1ccccc1 | active: 0.16 |
| COC(=O)C1CC(OC(C)=O)C(=O)C2C1(C)CCC1C(=O)OC(c3ccoc3)CC12C (configuration not stated) | inactive: 1.02 |

| SMILES | relative growth |
| --- | --- |
| CNC(=O)Oc1ccccc1OC(C)C | inactive: 1.13 |
| CCCC(=O)c1c(O)[nH]c(=O)[nH]c1=O | inactive: 1.01 |
| Oc1ccccc1-c1ccccc1 | inactive: 0.915 |
| CN1[C@@H]2CC[C@@H]1C[C@H](O)C2 (some centres not stated) | inactive: 1.01 |
| Cc1cccc(N2CCNCC2)n1 | inactive: 0.98 |
| Cc1nnc(N2CCC[C@]3(CNCCO3)C2)o1 | inactive: 0.98 |
| CC(=O)NC1CCSC1=O (configuration not stated) | inactive: 0.982 |
| CC(N)C(O)c1ccc(O)c(O)c1 (configuration not stated) | inactive: 1.05 |
| O=C(NC(O)C(Cl)(Cl)Cl)NC(O)C(Cl)(Cl)Cl (configuration not stated) | inactive: 1.21 |
| CCN1C[C@]2(OC(=O)c3ccccc3NC(C)=O)CC[C@@H](OC)[C@@]34[C@H]5C[C@@H]6[C@@H](OC)C[C@](O)([C@@H](C[C@@H]23)[C@@H]14)[C@]5(O)[C@H]6OC | inactive: 0.979 |
| OCC(O)C1OC2OC(C(Cl)(Cl)Cl)OC2C1O (configuration not stated) | inactive: 0.919 |
| CN1C(=O)CCS(=O)(=O)C1c1ccc(Cl)cc1 (configuration not stated) | inactive: 0.979 |
| CC(=O)OC1CC2C(C)(C)C(=O)C=CC2(C)C2CCC3(C)C(=CC(=O)OC3c3ccoc3)C12C (configuration not stated) | inactive: 1.08 |
| C=CCC1(O)CCC2C3CCC4=CC(=O)CCC4=C3C=CC21C (configuration not stated) | inactive: 1.08 |
| c1ccc2c(c1)sc1ccccc12 | inactive: 1.07 |
| CN1C(=O)NC(=O)/C(=C\c2ccc(O)cc2)C1=O | inactive: 1.01 |
| NC(=O)CS(=O)C(c1ccccc1)c1ccccc1 (configuration not stated) | inactive: 1.17 |
| CN1CCN(C(=O)CN=[N+]=[N-])CC1 | inactive: 0.983 |
| Cc1ccc2nc(CCN)[nH]c2c1 | inactive: 0.999 |
| NC1(c2ccccc2F)CCCC1 | inactive: 1.02 |
| C=C(C)C1C2OC(=O)C1C1(O)CC3OC34C(=O)OC2C14C (configuration not stated) | inactive: 0.953 |
| CC(=O)OC1CCC2(C)C(CCC3C2CCC2(C)C(C4=CC(=O)OC4)C(OC(C)=O)CC32O)C1 (configuration not stated) | inactive: 1.01 |
| CO[C@@H]1C=C[C@@H]2[C@H]1N2CCCO (some centres not stated) | inactive: 0.993 |
| C1CO[C@@]2(C1)CCNC2 | inactive: 1.08 |
| CCOP(=S)(OCC)Oc1ccc2c(C)c(Cl)c(=O)oc2c1 | inactive: 0.955 |

| SMILES | relative growth |
| --- | --- |
| COc1ccc(OC(=O)N(C)C[C@@H]2OCc3ccccc3-c3c(n(C)c4ccccc34)C(=O)N([C@H](C)CO)C[C@@H]2C)cc1 | inactive: 1 |
| O=C1C=CC(=O)C=C1 | inactive: 0.984 |
| COC(=O)NC(=S)Nc1ccccc1NC(=S)NC(=O)OC | inactive: 1.01 |
| Oc1ccccc1-c1ccccc1O | inactive: 0.657 |
| O=c1cccc2n1C[C@H]1CNC[C@H]2C1 | inactive: 0.971 |
| Cc1cc(C)nc(NC2=NCCN2)n1 | inactive: 0.997 |
| CCCC[C@@H](C)[C@@H](OC(=O)C[C@@H](CC(=O)O)C(=O)O)[C@H](C[C@@H](C)C[C@H](O)CCCC[C@@H](O)C[C@H](O)[C@H](C)N)OC(=O)C[C@@H](CC(=O)O)C(=O)O | inactive: 1.01 |
| CC1=C2C(=COC(C)C2C)C(O)=C(C(=O)O)C1=O (configuration not stated) | inactive: 0.87 |
| CCn1nc(-c2cccnc2)nc2c(=O)n(C)c(=O)nc1-2 | inactive: 0.846 |
| CC(=O)N[C@@H]1[C@H](O[C@@H]2O[C@H](C[C@@H](O)[C@H]3O[C@@H](n4ccc(=O)[nH]c4=O)[C@H](O)[C@@H]3O)[C@H](O)[C@H](O)[C@H]2NC(=O)/C=C/CCCCCCCCC(C)C)O[C@@H](CO)[C@H](O)[C@H]1O | inactive: 1.03 |
| COC(=O)[C@H]1CNC(=O)C1 | inactive: 0.978 |
| Cl.Clc1ccc(C(OCCN2CCCCC2)c2ccccc2)cc1 (configuration not stated) | inactive: 0.933 |
| O=c1cccc2n1C[C@@H]1CNC[C@H]2C1 | inactive: 1 |
| c1ccc(N2CCNCC2)nc1 | inactive: 1 |
| CC(C)Oc1ncccc1CN | inactive: 0.977 |
| CCOc1cc(C=O)ccc1O | inactive: 0.911 |
| C[C@@H]1CN([C@@H](C)CO)C(=O)CCCn2nncc2CO[C@@H]1CN(C)C(=O)Oc1cccc2ccccc12 | inactive: 0.981 |
| C[C@@]12C(=O)OC(=O)[C@]1(C)[C@H]1CC[C@@H]2O1 | inactive: 0.933 |
| Cc1cc(O)c2c(=O)c3c(O)cc(O)c4c5c(O)cc(O)c6c(=O)c7c(O)cc(C)c8c1c2c(c34)c(c78)c65 | inactive: 1.61 |
| CC1CC(C)C(=O)C(C(O)CC2CC(=O)NC(=O)C2)C1 (configuration not stated) | inactive: 0.206 |
| CC(CCc1ccccc1)NC(C)C(O)c1ccc(O)cc1.Cl (configuration not stated) | inactive: 1.02 |
| N#C[C@]1(O)CN2CCC1CC2 | inactive: 1.01 |
| C[C@@H]1C(=O)NC[C@H]2CN(CC3CC3)C[C@@H]21 | inactive: 0.982 |
| COc1ccc(OC(=O)N(C)C[C@H]2OCc3ccccc3-c3c(n(C)c4ccccc34)C(=O)N([C@H](C)CO)C[C@H]2C)cc1 | inactive: 1.01 |
| CCC1(C)CC(=O)NC(=O)C1 | inactive: 1.04 |

| SMILES | relative growth |
| --- | --- |
| CC(C)n1cnnc1CCN | inactive: 0.994 |
| COc1cc2c(cc1OC)C1C(=O)c3ccc4oc(C(C)C)cc4c3OC1CO2 (configuration not stated) | inactive: 0.795 |
| C[C@H](CO)N1C[C@H](C)[C@H](CN(C)C(=O)Oc2cccc3ccccc23)OCc2cn(nn2)CCCC1=O | inactive: 1.05 |
| CCCC(C)(COC(N)=O)COC(=O)NC(C)C (configuration not stated) | inactive: 1.04 |
| CN1CCOC[C@]2(CCCNC2)C1 | inactive: 0.994 |
| CCC(N)C(O)c1ccc(O)c(O)c1.Cl (configuration not stated) | inactive: 0.99 |
| N[C@@]1(C(=O)O)CC[C@H](C(=O)O)C1.N[C@]1(C(=O)O)CC[C@@H](C(=O)O)C1 | inactive: 0.973 |
| COc1ccccc1C1(N)CC1 | inactive: 1.01 |
| CN(C)c1ccc(CCN)cc1 | inactive: 1 |
| CC(O)CN1CCN(CC(=O)[O-])CCN(CC(=O)[O-])CCN(CC(=O)[O-])CC1.[Gd+3] (configuration not stated) | inactive: 1.09 |
| Cl.NNCc1ccccc1 | inactive: 1.01 |
| COC(=O)[C@@]1(Cc2ccccc2N=[N+]=[N-])N=C(c2ccc(OCCCO)cc2)O[C@H]1c1ccccc1CN=[N+]=[N-] | inactive: 1.03 |
| Oc1ccc(Cl)cc1Cc1cc(Cl)ccc1O | inactive: 0.398 |
| CC(C(O)c1ccccc1)N(C)C (configuration not stated) | inactive: 0.945 |
| C[C@H](N)[C@H](O)c1ccc(O)c(O)c1 | inactive: 1.02 |
| O=C1CC2(CCNCC2)CN1 | inactive: 0.996 |
| CC(COc1ccc(Oc2ccccc2)cc1)Oc1ccccn1 (configuration not stated) | inactive: 0.972 |
| COC(=O)C[C@@H]1CC[C@H]2NC[C@@H](O)COC[C@@H]2O1 | inactive: 1.01 |
| O=C1CO[C@H]2CNC[C@@H]2N1CC1CCCC1 | inactive: 1 |
| CN1CCN(CC2CC2)C(=O)C12CCNCC2 | inactive: 1 |
| CC(C)(C)NCC(O)c1ccccc1Cl.Cl (configuration not stated) | inactive: 1.06 |
| Clc1ccc(C(c2ccc(Cl)cc2)C(Cl)(Cl)Cl)cc1 | inactive: 1.13 |
